{"source": "patent US7524517B2", "about": "“Methods and compositions for P2X receptor calcium entry channels and other calcium entry mechanisms” (UAB Research Foundation, priority 2003, dated 2009)", "test_system": "IB3-1 CF cells", "assay": "Coulter Counter cell volume assay (regulatory volume decrease)", "conditions": "NMDG-containing solution, extracellular Ca2+ present", "data": [{"compound": "[Cl-].[Cl-].[Zn+2]", "note": "[ZnCl2, zinc chloride]", "values": [{"measurement": "regulatory volume decrease (RVD) after hypotonic cell swelling", "result": "corrected"}]}]}
